# Measured values published in PubChem BioAssay AID488969 (Vanderbilt High Throughput Screening Facility, 2010).
# Whole data set: some 110,000 compounds, median “z-score” near -0.1, cut for the highest 2% near 2. The list shows a part of the results. Calls of active or inactive are those of the source.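 How the source made its calls: active means z-score in the third read window above 3 or below -3; inactive means the rest.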
# Biological target: Metabotropic glutamate receptor 8 (Rattus norvegicus) (UniProt P70579)
# Assay: mGluR8 Gi/Go-coupled signaling modulation – cell-based, rat, thallium flux, HTS, primary screen (AID 488969)
# Conditions: HEK293 rat mGluR8, GIRK (G protein-gated inwardly rectifying potassium channel) thallium flux, FluoZin2; at 10 µM; stronger effect = higher value; submaximal glutamate (EC20) added with thallium
# UniProt P70579, sequence (P70579 whole entry, looked up): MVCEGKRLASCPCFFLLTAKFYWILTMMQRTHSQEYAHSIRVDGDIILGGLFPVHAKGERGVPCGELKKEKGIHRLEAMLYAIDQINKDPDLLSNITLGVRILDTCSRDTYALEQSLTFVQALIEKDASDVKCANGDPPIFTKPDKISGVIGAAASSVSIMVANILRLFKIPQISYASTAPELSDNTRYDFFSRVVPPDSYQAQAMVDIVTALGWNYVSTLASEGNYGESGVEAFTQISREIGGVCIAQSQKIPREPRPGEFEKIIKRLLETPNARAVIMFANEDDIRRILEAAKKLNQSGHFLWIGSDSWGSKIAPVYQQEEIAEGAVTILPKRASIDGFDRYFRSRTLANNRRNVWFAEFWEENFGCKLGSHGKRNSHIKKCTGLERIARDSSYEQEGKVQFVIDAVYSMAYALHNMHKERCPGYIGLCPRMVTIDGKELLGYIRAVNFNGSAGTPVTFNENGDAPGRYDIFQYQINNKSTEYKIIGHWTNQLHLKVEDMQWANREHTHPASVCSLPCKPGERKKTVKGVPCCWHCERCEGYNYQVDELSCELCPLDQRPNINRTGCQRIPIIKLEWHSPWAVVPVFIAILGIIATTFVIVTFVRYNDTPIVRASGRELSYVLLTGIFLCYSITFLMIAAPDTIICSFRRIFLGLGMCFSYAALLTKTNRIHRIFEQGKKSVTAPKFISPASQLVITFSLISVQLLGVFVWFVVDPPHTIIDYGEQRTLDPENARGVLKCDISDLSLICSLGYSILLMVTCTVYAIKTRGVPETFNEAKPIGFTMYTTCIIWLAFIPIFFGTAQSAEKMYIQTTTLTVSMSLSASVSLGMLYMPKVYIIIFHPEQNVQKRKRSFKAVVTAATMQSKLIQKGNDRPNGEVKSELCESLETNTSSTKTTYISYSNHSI
row,Compound,z-score
1,CCOc1ccc2nc(NC(=O)CSc3nnnn3C3CCCCC3)sc2c1,-0.0775
2,COc1ccc(-c2cc(C(=O)NCC(C)C)no2)cc1,-0.536
3,Cc1ccc(NC2=NCCCCC2)cc1C,-0.0568
4,Cc1ccccc1-c1cc(C(=O)Nc2nc3c(s2)CCCC3)c2ccccc2n1,-0.133
5,Cc1cc(C)cc(NC(=O)C(OC(=O)c2sccc2C)c2ccccc2)c1 (configuration not stated),-0.142
6,CCN(CC)S(=O)(=O)c1ccc(C)c(NC(=S)NNC(=O)C2CC2)c1,0.0753
7,N/C(COc1ccc(Cl)cc1Cl)=N\NS(=O)(=O)c1ccccc1,-0.356
8,COc1ccc(N2CCN(C(=N)/C(C(C)=O)=C(\C)O)CC2)cc1,0.87
9,Cc1ccccc1NC(=O)c1cccc(C(F)(F)F)c1,-0.246
10,c1ccc(N2CCN(c3ccccc3)C2c2ccncc2)cc1,-0.689
11,OCCNc1nc(NCCC2=CCCCC2)nc(N2CCOCC2)n1,-0.929
12,Cc1ccc(CNC(=O)COC(=O)CSc2ccc(Br)cc2C)cc1,-0.303
13,COC(=O)C1=C(C)n2nnnc2NC1c1ccc(Cl)cc1 (configuration not stated),-1.56
14,O=C1CCCC2=C1C(c1ccc(Cl)cc1)C1C(=O)c3ccccc3C1=N2 (configuration not stated),-0.0579
15,Cc1cc(NC(=O)CSc2nnnn2C2CCCC2)no1,0.00246
16,Cc1cc(C)n(-c2nc3ccccc3nc2N2CCN(S(=O)(=O)c3ccc4ccccc4c3)CC2)n1,-0.189
17,COc1ccc(C)cc1S(=O)(=O)N1CCN(Cc2ccccc2)CC1,-0.238
18,CC(OC(=O)c1ccc2ncsc2c1)C(=O)NCc1ccccc1 (configuration not stated),0.0216
19,CC(=O)c1c(C)[nH]c(C(=O)OCC(=O)N2CCN(S(=O)(=O)c3ccc(C)cc3C)CC2)c1C,-0.0929
20,CC1Cn2c(nnc2-c2cc3ccccc3cc2O)S1 (configuration not stated),-0.312
21,FC(F)(F)c1cc(-c2ccco2)nc(N2CCN(c3ccccc3)CC2)n1,-0.256
22,Cc1cc(C)nc(Sc2ccc3nnc(C(F)(F)C(F)(F)C(F)(F)F)n3n2)n1,-0.0632
23,COc1ccc(Cc2nnc(SCc3c(C)noc3C)n2C2CCCCC2)cc1OC,0.045

row,Compound,z-score
1,CNC(=S)NC1CC2CCC(C1)N2Cc1ccccc1 (configuration not stated),-0.141
2,C1COCCNCCOCCOCCN1,-0.21
3,CN(C)c1ccc(N2C(=O)CC(Nc3ccc(N4CCOCC4)cc3)C2=O)cc1 (configuration not stated),-0.145
4,O=C(O)/C=C/C(=O)NNC(=O)c1ccc(Br)cc1,0.0968
5,COc1ccc(S(=O)(=O)N2CCC(C(=O)N3CCN(c4ccccc4OC)CC3)CC2)cc1,-0.274
6,N#Cc1c(NCCN)nc(NCc2ccccc2)c2c1CCN(Cc1ccccc1)C2,-0.11
7,COc1ccc(CNC(=O)/C(C#N)=C2\N=C(NC(=O)c3cccs3)c3ccccc32)cc1,0.474
8,CC(C)(C)c1ccc(OC(=O)c2ccc3nsnc3c2)cc1,-0.00352
9,COc1cc(NC(=O)c2ccco2)c(C(=O)O)cc1OC,-0.12
10,COc1ccc(NC(=O)Cn2c(=O)sc3ccccc32)c(OC)c1,-0.611
11,CCc1ccc(NC(=O)c2onc(C)c2Cl)cc1,0.00239
12,CCN1CCN(C(c2ccccc2)c2nnnn2Cc2ccccc2)CC1 (configuration not stated),0.171
13,CCCCCC(=O)Nc1nnn(CCC)n1,0.0157
14,O=C1C2CC=C(Cl)CC2C(=O)N1CCC[n+]1ccccc1 (configuration not stated),-0.162
15,Cc1cc(=O)[nH]c(SCCCOc2ccccc2Cl)n1,-1.08
16,COc1ccc(C(=O)n2cnnc2N)cc1,0.194
17,CCc1cc2c(=O)n(-c3ccc(C)cc3)cnc2s1,-0.106
18,COc1cc(OC)cc(-c2cc3nc(C)cc(N4CCN(C(=O)c5ccco5)CC4)n3n2)c1,-0.0474
19,CC1=C(C(=O)OCc2ccc3c(c2)OCO3)C(c2ccccc2OCc2ccccc2)NC(=O)N1 (configuration not stated),-0.467
20,CC1(c2ccccc2Cl)NC(=O)N(CC(=O)NC(=O)NCc2ccco2)C1=O (configuration not stated),1.01
21,CCOC(=O)C1=C(C)N=C2SC(CC)C(=O)N2C1c1cccc(F)c1 (configuration not stated),-2.34
22,COC(=O)[C@H](CCSC)NC(=O)N1CCC(C)CC1,0.07
23,O=[N+]([O-])c1ccc(OCC(O)CN(CCO)CCO)cc1 (configuration not stated),0.209

row,Compound,z-score
1,COc1ccc(/C=N/NC(=O)COc2ccc(Cl)cc2Cl)cc1Cn1nc(C)cc1C,-0.534
2,Cc1cc(C)c(C)c(S(=O)(=O)NCc2ccc(C(=O)N3CCCCC3)cc2)c1C,0.249
3,CCOC(=O)C1CCN(c2cc(=O)n(-c3ccc(OC)cc3)c(=O)[nH]2)CC1,0.162
4,COc1cc(OC)cc(C(=O)N2CCN(C3CCN(Cc4ccccc4)CC3)CC2)c1,-0.0186
5,O=C(O)CNC(=O)c1ccc2c(c1)OCCO2,0.311
6,CC1=C(C(=O)Nc2cccc(C)n2)C(c2ccc3c(c2)OCO3)C2=C(CC(c3ccco3)CC2=O)N1 (configuration not stated),-0.394
7,Cc1c(C2=CCN(S(=O)(=O)c3ccc(Cl)cc3)CC2)c2ccccc2n1C,-0.123
8,CCOc1cc(/C=N/NC(=O)C(=O)NCCCOC(C)C)cc(Br)c1O,-0.0647
9,Cc1c(-c2ccccc2)c(P(=O)(N2CCOCC2)N2CCOCC2)c2ccccn12,-0.299
10,O=C(c1ccc2c3c(cccc13)CC2)N1CCN(c2ncccn2)CC1,-0.454
11,Cc1c(Br)c([N+](=O)[O-])nn1C(C)C(=O)N1CCCc2ccccc21 (configuration not stated),-0.221
12,CCOc1ccc(C2/C(=C(\O)c3c(C)[nH]c(C(=O)OC)c3C)C(=O)C(=O)N2CCN(C)C)cc1 (configuration not stated),0.209
13,Cc1cccc(-n2ncc(C#N)c2N)c1,1.01
14,CC(C)(C)c1ccc(OCc2nc(-c3ccccn3)no2)c(Br)c1,-0.157
15,CC1CCCCC1NS(=O)(=O)c1ccc(S(=O)(=O)N2CCCC2)cc1 (configuration not stated),-0.536
16,CCCCN(CC)CCNC(=O)Cn1cnc2sc(C)c(S(=O)(=O)N3CCOCC3)c2c1=O,-0.183
17,CCc1c(C(=O)NNC(=S)NCc2ccccc2)csc1C,0.611
18,O=C(NCC(c1cccs1)N1CCOCC1)c1ccccc1NS(=O)(=O)c1ccc(Cl)cc1 (configuration not stated),-0.359
19,CCCn1c(SCC(=O)c2cc(C)n(-c3ccc4c(c3)OCO4)c2C)n[nH]c1=O,-0.175
20,CC(NC(=O)c1ccccc1)C(=O)NC1=NCCS1 (configuration not stated),0.0634
21,CS(=O)(=O)N(CCc1ccccc1)CC(=O)N1CCN(c2ccccc2)CC1,-0.157
22,O=C(C1CCCN(S(=O)(=O)Cc2ccccc2)C1)N1CCCCC1 (configuration not stated),-0.0708
23,Cc1ccc(S(=O)(=O)N2CCN=C2c2ccccc2)cc1C,0.196

row,Compound,z-score
1,CSc1ncccc1C(=O)OCC(=O)NC1CCS(=O)(=O)C1 (configuration not stated),-0.0709
2,O=C(Cc1noc2ccccc12)Nc1ccc2ccccc2c1,-0.24
3,COc1ccc(Cl)cc1NC(=O)NC(C)c1ccncc1 (configuration not stated),-0.275
4,O=C(CCc1nc(-c2ccccc2F)no1)Nc1ccc(Oc2ccccc2)cc1,0.772
5,Cc1ccc2nc3sc(C(=O)Nc4c(C)[nH]c(=O)[nH]c4=O)c(N)c3cc2c1,-0.158
6,Cc1cc(NC(=O)c2ccc3c(c2)OCO3)ccc1NC(=O)c1ccco1,-0.13
7,Cc1ccc(-c2csc3ncnc(Cl)c23)cc1,0.241
8,CCNC(=S)N(Cc1cc2cc(C)cc(C)c2[nH]c1=O)C1CCCC1,-0.615
9,Cc1ccc(C(=O)NCCN(C)C)c(C)c1,0.0179
10,CN1C2CCC1CC(OC(=O)c1c[nH]c3ccccc13)C2 (configuration not stated),1.34
11,Cc1nn(Cc2ccccc2Cl)c(C)c1NC(=O)NC12CC3CC(CC(C3)C1)C2,-0.454
12,Cc1cccc(-n2ncc(C#N)c2-n2cccc2)c1,-0.397
13,O=C(Nc1ccc(N2CCCC2=O)cc1)c1cccc(F)c1,-0.00633
14,O=C(Nc1ccc(Cl)c(Cl)c1)Nc1nc(-c2ccccc2)cs1,0.17
15,CCN(CC)S(=O)(=O)c1ccc(NS(=O)(=O)CC23CCC(CC2=O)C3(C)C)cc1 (configuration not stated),0.106
16,O=C(Nc1cccc(Cl)c1Cl)c1ccncc1,-0.155
17,N#Cc1nc(COc2ccccc2F)oc1NCCc1ccccc1,-0.289
18,COC(=O)Cc1cc(=O)[nH]c(/N=C(\N)Nc2ccccc2)n1,-0.341
19,O=C(c1ccc(Br)s1)N1CCCC1,-0.0657
20,COc1cccc(-c2nnc(SCC(=O)Nc3ccc(OC)c(OC)c3)n2N)c1,-0.349
21,COc1ccc(-n2c(C)cc(C(=O)COc3ccc(C)nc3[N+](=O)[O-])c2C)cc1,-0.715
22,Cc1ccc(C(=O)CSc2nnc(-c3cccnc3)n2N)cc1,-0.308
23,COc1cccc(/C=N/NC(=O)C(=O)N2CCCC2)c1,-0.0627

row,Compound,z-score
1,Cc1ccc(N2C(=O)C(Cl)=C(N3CCN(C)CC3)C2=O)c(C)c1,-0.189
2,CCS(=O)(=O)Nc1ccc(-c2nnc(SCC(=O)c3ccc(NC(C)=O)c(OC)c3)o2)cc1,active: 4.64
3,Cc1noc(/C=C/c2ccco2)c1S(=O)(=O)N1CCC(C(=O)N2CCc3ccccc32)CC1,-0.389
4,COc1cc(OC)cc(-n2nnnc2SCC(=O)N2CCCC2)c1,0.154
5,Cn1ccnc1SC(=O)N1c2ccccc2Sc2ccccc21,-0.487
6,CCOC(=O)c1cn(Cc2cccc(C)c2)nn1,-0.25
7,CC(=O)NNc1cccc(Cl)n1,0.709
8,C/C(=N/NC(=O)OC(C)(C)C)c1ccco1,-0.124
9,O=C(CNC(=O)COc1ccccc1)NCc1ccccc1F,0.0382
10,CCOC(=O)Cn1c(=O)oc2cc(S(=O)(=O)NCc3ccccn3)ccc21,-0.108
11,Cc1ccc(CNC(=O)COC(=O)c2cnccn2)cc1,0.214
12,COc1ccc(/C=N/n2c(-c3ccco3)nc3ccccc3c2=O)cc1,-1.17
13,CC(C)(C)c1ccccc1NC(=O)Cn1c(=O)cnc2ccccc21,0.678
14,Cc1cc2c(c(=O)n1CC1CCCO1)C(c1ccc3c(c1)OCO3)C(C#N)=C(N)O2 (configuration not stated),-0.638
15,COc1ccc(Nc2nccc(OC)c2C#N)cc1,-0.24
16,CCNc1nc(N)nc(-c2cc(Cl)ccc2OC)n1,-0.253
17,O=C(CSc1ncn[nH]1)Nc1nc(-c2ccccc2)cs1,0.0129
18,CCCc1cc(C(N)=O)c(NC(=O)c2ccoc2C)s1,-0.638
19,OCc1cc(CO)c(O)c(CCc2ccccc2)n1,0.171
20,CCCCNC(=O)CSc1nc2ccccc2c(=O)n1Cc1ccc2c(c1)OCO2,0.908
